Measured values: the supplement of paper PMC3334620
The full ranking holds about 33,000 sequences; the median of “E-score (-0.5 to 0.5)” is about -0.016, and the highest 2% start at about 0.32. The list shows a part of the results.

Biological target: T1, Stp1 (UniProt B3LFK1)
T1 sequence: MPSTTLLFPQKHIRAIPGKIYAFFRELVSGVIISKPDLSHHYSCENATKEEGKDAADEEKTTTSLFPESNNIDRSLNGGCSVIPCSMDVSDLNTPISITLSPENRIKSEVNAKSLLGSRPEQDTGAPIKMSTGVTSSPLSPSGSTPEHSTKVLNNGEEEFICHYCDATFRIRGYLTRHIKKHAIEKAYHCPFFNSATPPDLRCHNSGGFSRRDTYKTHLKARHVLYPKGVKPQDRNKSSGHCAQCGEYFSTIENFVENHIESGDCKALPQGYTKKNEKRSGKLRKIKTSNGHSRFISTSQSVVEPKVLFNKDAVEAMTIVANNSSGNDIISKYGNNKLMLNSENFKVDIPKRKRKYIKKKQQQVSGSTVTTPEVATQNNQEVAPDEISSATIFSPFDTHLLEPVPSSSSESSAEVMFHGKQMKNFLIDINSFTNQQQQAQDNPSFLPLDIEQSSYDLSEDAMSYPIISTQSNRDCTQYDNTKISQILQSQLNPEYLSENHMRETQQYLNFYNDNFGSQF
Assay: PBM E-score (8-mer binding enrichment) (E-score (-0.5 to 0.5)); higher = stronger / more preferred TF binding; most listed sequences are background and not binding sites
Details: protein concentration: 200 nM; construct: GST-full length
Procedure, shortened: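 Yeast transcription factors, full-length or as DNA-binding domains, were expressed with a GST tag using PURExpress in vitro transcription/translation. At about 100-200 nM they were applied to universal all-10-mer Agilent arrays, double-stranded by primer extension on fresh or once-stripped slides. Fluorescent anti-GST detected bound protein, and masliner normalised the scans. E-scores for ungapped eight-base words, pooled with reverse complements, came from the Universal PBM Analysis Suite.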

| Sequence | PBM E-score |
| --- | --- |
| CAAGCAAC | 0.0476 |
| ACCGAAGA | -0.00975 |
| CTCGGCAA | 0.1 |
| GTAACGTA | -0.00488 |
| CTTTATCC | -0.105 |
| ATTGGCTA | -0.0737 |
| AAACACGT | 0.0747 |
| ACAAGTCG | -0.152 |
| ACAGATCC | 0.1 |
| CCTATAAG | -0.235 |
| AGGTGGAA | -0.125 |
| AGTTTAGA | -0.0385 |
| ATACGTCC | -0.0977 |
| AGCTAGCG | -0.155 |
| AGGATACC | -0.187 |
| AGGCACTA | 0.301 |
| AATCAATT | 0.218 |
| CCCCCTGC | -0.346 |
| CTGAGCAC | -0.19 |
| AGTCCTGC | -0.228 |
| CTATTCGC | 0.0152 |
| GTAATCAA | 0.296 |
| GCCTCCCC | -0.121 |
| CTCGTCGA | -0.0577 |
| AACTGAAT | -0.0877 |

| Sequence | PBM E-score |
| --- | --- |
| GCAGACGC | 0.0501 |
| AAGGGGTC | -0.348 |
| GAGGTACA | -0.0637 |
| AACTATCT | -0.0437 |
| GACCTTAA | -0.0305 |
| CTATATCC | -0.152 |
| AGGGTGAC | -0.163 |
| ATATCCTC | -0.109 |
| CGACATTC | 0.0805 |
| AGAGTACT | -0.0958 |
| CAACTTGG | 0.183 |
| AGGGTGAG | -0.125 |
| ACCTATTA | -0.0741 |
| ATAAACTC | 0.174 |
| CAGTATCG | 0.0809 |
| ACAAGCCA | -0.0362 |
| CCATGACA | -0.0644 |
| CTGCTGGA | -0.0314 |
| CCCTGGCG | -0.0313 |
| AGGCAATG | 0.0553 |
| CTCGTGCC | 0.294 |
| ATTCATAA | 0.125 |
| CCGCACAG | 0.201 |
| CGGCAAGC | 0.124 |
| ATCGTGAA | -0.0119 |

| Sequence | PBM E-score |
| --- | --- |
| ACGGTATC | 0.113 |
| CAGTAAAA | 0.031 |
| CCTTTAGA | -0.0438 |
| CAACAACG | 0.0339 |
| CCGATAGA | -0.114 |
| CATCATAA | 0.178 |
| AACGGCCC | 0.235 |
| CCGTGGTA | 0.149 |
| CCAGAAAA | -0.0809 |
| CTAATGAC | -0.118 |
| GCAAAATA | 0.104 |
| CATGCCCG | -0.115 |
| CTTCTTCA | -0.0169 |
| GGTCGACC | -0.00481 |
| CGCAATGA | -0.0583 |
| ATCAGTAA | 0.154 |
| GCAATAGC | 0.0926 |
| GACGGCTA | 0.235 |
| AGGGACAT | 0.0229 |
| AATGATAT | 0.175 |
| GTGCCTAA | 0.184 |
| AGAATAAA | 0.131 |
| ACAGAGTG | -0.107 |
| ATGCGTCG | -0.149 |
| TAAGAATA | -0.0476 |

| Sequence | PBM E-score |
| --- | --- |
| CAACAGGG | -0.0414 |
| AACGGCGG | 0.378 |
| AGCGACCG | -0.0169 |
| AATAATTG | 0.0649 |
| CAAGCACA | 0.0261 |
| ACCTCCGC | -0.0776 |
| CAGACCAA | -0.0845 |
| CAAGGTTA | -0.147 |
| ATAACGAA | 0.0556 |
| ACAGTGGG | -0.219 |
| AAAGTATA | 0.0839 |
| CCGTACGG | 0.341 |
| CTTGTTCA | -0.062 |
| GCGGTACC | -0.0227 |
| TGCCAGCA | 0.01 |
| GTCGTGAA | -0.234 |
| TCACAGCA | 0.128 |
| TGCGCAAA | 0.0949 |
| AACACACA | 0.113 |
| GAGATCAC | -0.112 |
| AAAGTAAT | 0.153 |
| AGAAGTAC | -0.141 |
| GAATTAGC | 0.0417 |
| CAGGAGGG | -0.238 |
| GTCCCATA | -0.166 |

| Sequence | PBM E-score |
| --- | --- |
| ATGATTTA | 0.17 |
| ACACCGAC | -0.113 |
| CATCGGGA | -0.1 |
| GGCAAATA | 0.261 |
| GTCCGACA | -0.00015 |
| GGGCGTTA | 0.206 |
| AGCGGAGC | 0.11 |
| TAGTCTGA | 0.00058 |
| CGGACACC | -0.0328 |
| CGGATCAA | 0.161 |
| CCCGGATA | -0.245 |
| CTCTCATC | -0.141 |
| CGTCCACA | -0.0597 |
| CCGCCGCA | 0.402 |
| TAAGACAA | 0.239 |
| GGCTCTAC | 0.187 |
| ACCCTAAT | -0.098 |
| ACGGGTTC | 0.112 |
| CTCCGAGC | -0.0689 |
| CATAATTA | 0.162 |
| AAGATGTA | -0.0371 |
| CGTAGAGC | 0.201 |
| CCATTCGA | -0.0302 |
| GACGGTGA | -0.0519 |
| GGAACACC | -0.251 |

| Sequence | PBM E-score |
| --- | --- |
| AGAACTAA | 0.0762 |
| GACCCTCC | -0.25 |
| TCAACGCA | 0.082 |
| ATCGACGG | 0.199 |
| CTTCCCAC | -0.0242 |
| GCAACCAA | 0.0778 |
| ATCGGCTG | -0.0281 |
| AACGCAGA | -0.134 |
| CGTGGACC | 0.0121 |
| AGTTTTTC | 0.0118 |
| AGAGATAA | 0.0526 |
| CACACACG | 0.267 |
| CGTTGCCA | 0.0776 |
| ATCGATTC | -0.0295 |
| GGGCTGAA | 0.00916 |
| GGCACATA | 0.283 |
| AGAAGGGC | -0.0338 |
| ATCAGGGG | -0.332 |
| GCGCAATA | 0.0277 |
| GGAGGCAA | -0.088 |
| CAGCGAAC | 0.0269 |
| AGGTCGAG | -0.125 |
| GTGTCCCA | -0.095 |
| CACCACAA | 0.113 |
| CCGCTAGG | 0.0475 |

| Sequence | PBM E-score |
| --- | --- |
| GTATGCTA | -0.00287 |
| ACGTCGCA | -0.101 |
| ACTGGGCA | -0.0918 |
| CGGGCACG | 0.139 |
| AACCTTCT | -0.263 |
| GTAATATA | 0.274 |
| CCATCAGG | -0.34 |
| ATATAAGG | 0.182 |
| TATCACGA | 0.0205 |
| GTAAGAAC | 0.0975 |
| CTCGTAAC | 0.0966 |
| AATTTCAA | -0.0992 |
| ACAAACCT | -0.103 |
| CCCTTGCC | -0.105 |
| CGTCTTTA | 0.112 |
| GCGACACC | -0.0715 |
| GATTTTGC | 0.0476 |
| CCACCGGC | -0.0392 |
| ACCCCTTC | -0.267 |
| CATCGCCG | 0.375 |
| ATCGGGTC | -0.0516 |
| CAGCACTC | -0.019 |
